# Measurements published in the supplement of paper PMC9446081.
# Hit rate of the full screen: of about 39,000 compounds, about 220 (0.56%) showed activity. The list shows a part of the results.
# System: Escherichia coli K-12 BW25113
# Test: relative growth (OD600 normalised to plate interquartile mean) (fraction); higher = less growth inhibition, active = 0.2 or less
# Conditions: 50 µM; LB; incubation time: overnight (16-24 h)
# 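Further: static incubation at 37 °C against the wild-type strain, values averaged over two biological replicates.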
row,SMILES,relative growth
1,C[C@H]1CN([C@@H](C)CO)S(=O)(=O)c2ccc(C#Cc3cccnc3)cc2O[C@H]1CN(C)C(=O)Nc1ccc2c(c1)OCO2,inactive: 0.972
2,CN(C)CCCNC(=O)C[C@H]1CC[C@H]2[C@@H](COc3ccc(NC(=O)c4ccccc4F)cc3C(=O)N2C)O1,inactive: 1.01
3,COC(=O)c1ccc(O)c(O)c1,inactive: 0.976
4,Cc1noc(C)c1S(=O)(=O)N(C)C[C@H]1Oc2ccc(NC(=O)Nc3ccc4c(c3)OCO4)cc2C(=O)N([C@H](C)CO)C[C@@H]1C,inactive: 1.02
5,COc1ccc(S(=O)(=O)Nc2ccc3c(c2)CC(=O)N([C@H](C)CO)C[C@@H](C)[C@H](CN(C)S(=O)(=O)c2ccc(C)cc2)O3)cc1,inactive: 1.05
6,Cc1noc(C)c1S(=O)(=O)N(C)C[C@@H]1Oc2ccc(NC(=O)C3CCCCC3)cc2CC(=O)N([C@H](C)CO)C[C@H]1C,inactive: 1.02
7,CC(C)c1c(O)ccc2c1CCC1C(C)(C)C(=O)CCC21C (stereo not given),inactive: 0.993
8,CNC[C@@H](O)[C@@H](O)[C@@H](O)[C@@H](O)CO,inactive: 0.986
9,C[C@@H]1CCCCO[C@H](CN(C)CC2CCCCC2)[C@@H](C)CN([C@H](C)CO)C(=O)c2cc(NC(=O)c3ccccc3)ccc2O1,inactive: 0.888
10,C[C@H](CO)N1C[C@H](C)[C@H](CN(C)C(=O)Nc2ccccc2)Oc2ccc(NS(=O)(=O)c3cn(C)cn3)cc2CC1=O,inactive: 1.01
11,C[C@@H]1CN([C@H](C)CO)S(=O)(=O)c2ccc(C#CC3CC3)cc2O[C@H]1CN(C)C(=O)C1CCCCC1,inactive: 0.998
12,CC(C)NC(=O)N(C)C[C@H]1Oc2cc(-c3ccccc3F)ccc2S(=O)(=O)N([C@@H](C)CO)C[C@H]1C,inactive: 0.966
13,Cc1ccc(S(=O)(=O)Nc2ccc3c(c2)CC(=O)N([C@@H](C)CO)C[C@H](C)[C@H](CN(C)S(=O)(=O)c2c(C)noc2C)O3)cc1,inactive: 0.984
14,C[C@@H]1CCCCO[C@@H](CN(C)CC2CCCCC2)[C@@H](C)CN([C@@H](C)CO)C(=O)c2cc(NS(=O)(=O)c3ccc(F)cc3)ccc2O1,inactive: 1
15,C[C@@H]1CCCCO[C@H](CN(C)C(=O)Nc2cccc3ccccc23)[C@H](C)CN([C@@H](C)CO)C(=O)c2cc(NC(=O)c3ccccc3)ccc2O1,inactive: 0.995
16,C[C@H]1CN([C@@H](C)CO)S(=O)(=O)c2ccc(Br)cc2O[C@@H]1CN(C)C(=O)c1cnccn1,inactive: 1
17,O=C(CN1CCOCC1)N[C@H]1CC[C@H](CCNS(=O)(=O)c2ccccc2F)O[C@@H]1CO,inactive: 0.939
18,C[C@@H]1CN([C@H](C)CO)C(=O)Cc2cc(NS(=O)(=O)c3ccc(Cl)cc3)ccc2O[C@@H]1CN(C)C(=O)Nc1ccc(C(F)(F)F)cc1,inactive: 0.993
19,C=C(NC(=O)C(=C)NC(=O)c1csc(C2=N[C@H]3c4csc(n4)[C@H]4NC(=O)c5csc(n5)[C@H](C(C)(O)[C@@H](C)O)NC(=O)[C@H]5CSC(=N5)C(=CC)NC(=O)[C@H]([C@@H](C)O)NC(=O)c5csc(n5)[C@]3(CC2)NC(=O)[C@H](C)NC(=O)C(=C)NC(=O)[C@H](C)NC(=O)[C@H]([C@H](C)CC)N[C@@H]2C=Cc3c([C@H](C)O)cc(nc3[C@H]2O)C(=O)O[C@@H]4C)n1)C(N)=O (stereo not given in full),inactive: 1.02
20,C[C@H](CO)N1C[C@H](C)[C@H](CN(C)S(=O)(=O)c2cccs2)Oc2ncc(C#CCN(C)C)cc2C1=O,inactive: 1.06

row,SMILES,relative growth
1,CCCCCc1ccccn1,inactive: 0.974
2,CO[C@H]1CN(C)C(=O)c2ccc(NC(=O)Nc3ccc(Cl)cc3)cc2OC[C@H](C)N(C(=O)Nc2c(C)noc2C)C[C@@H]1C,inactive: 0.981
3,O=C(Nc1ccc(C(F)(F)F)cc1)Nc1ccc2c(c1)[C@H]1C[C@@H](CC(=O)N3CCc4ccccc4C3)O[C@H](CO)[C@H]1O2,inactive: 1.01
4,C[C@H](CO)N1C[C@H](C)[C@H](CN(C)Cc2ccc(-c3ccccc3)cc2)Oc2ccc(NC(=O)C3CCCCC3)cc2CC1=O,inactive: 1.02
5,CCCN(C)C[C@H]1OCCCC[C@@H](C)Oc2ccc(NS(=O)(=O)c3cn(C)cn3)cc2C(=O)N([C@@H](C)CO)C[C@H]1C,inactive: 1
6,CO[C@H]1/C=C\C=C(/C)C(=O)NC2=CC(=O)C=C(C2=O)[C@H](OC)[C@@H](C)C[C@H](OC)[C@H](O)[C@@H](C)/C=C(\C)[C@@H]1OC(N)=O,inactive: 1
7,CCS(=O)(=O)Nc1ccc2c(c1)C(=O)N(C)C[C@@H](OC)[C@@H](C)CN(C(=O)c1ccc3c(c1)OCO3)[C@H](C)CO2,inactive: 0.984
8,C[C@H](CO)N1C[C@H](C)[C@H](CN(C)Cc2ccc(-c3ccccc3)cc2)Oc2ccc(NC(=O)Nc3cccc4ccccc34)cc2CC1=O,inactive: 1.04
9,COc1cccc(C(=O)Nc2ccc3c(c2)C(=O)N(C)[C@H]2CC[C@H](CC(=O)NCC4CC4)O[C@@H]2CO3)c1,inactive: 1.02
10,C[C@H]1CN([C@@H](C)CO)C(=O)c2cccc(NS(=O)(=O)c3ccc(Cl)cc3)c2O[C@@H]1CN(C)C(=O)Nc1cccc2ccccc12,inactive: 1
11,C[C@H]1CN([C@@H](C)CO)C(=O)c2cc(C#CCN(C)C)cnc2O[C@H]1CN(C)C(=O)c1ccc2c(c1)OCO2,inactive: 1.01
12,C[C@H](CO)N1C[C@H](C)[C@@H](CN(C)S(=O)(=O)c2cn(C)cn2)Oc2ccc(NC(=O)C3CCCCC3)cc2C1=O,inactive: 1.02
13,Cc1noc(C)c1S(=O)(=O)Nc1ccc2c(c1)CC(=O)N([C@@H](C)CO)C[C@@H](C)[C@H](CN(C)Cc1ccccc1)O2,inactive: 1.01
14,COCC(=O)Nc1ccc2c(c1)OC[C@@H](C)N(C(=O)Cc1ccccn1)C[C@H](C)[C@@H](OC)CN(C)C2=O,inactive: 0.987
15,C[C@H](CO)N1C[C@H](C)[C@H](CN(C)S(=O)(=O)c2ccccc2)OCCCC[C@H](C)Oc2ccc(NC(=O)Nc3ccccc3)cc2C1=O,inactive: 1.02
16,Cc1noc(C)c1S(=O)(=O)Nc1ccc2c(c1)C(=O)N([C@H](C)CO)C[C@@H](C)[C@@H](CN(C)C(=O)Nc1ccccc1)O2,inactive: 1
17,CCNC(=O)NS(=O)(=O)c1sc(CC(C)C)cc1-c1ccc(Cn2c(-c3ccccc3)nc(OC)c2C=O)cc1,inactive: 1.02
18,Cc1noc(C)c1NC(=O)N(C)C[C@H]1Oc2c(NC(=O)C3CC3)cccc2C(=O)N([C@H](C)CO)C[C@H]1C,inactive: 1.02
19,O=C1CNC(=S)N1CCc1ccccc1,inactive: 0.975
20,CN1CC2(CCNCC2)OC1=O,inactive: 1.01

row,SMILES,relative growth
1,CCOc1ccc(C(C)(C)N)cc1,inactive: 1
2,C[C@@H]1CN([C@@H](C)CO)C(=O)c2cc(NC(=O)Nc3ccc(C(F)(F)F)cc3)ccc2O[C@@H](C)CCCCO[C@H]1CN(C)S(=O)(=O)c1ccc(Cl)cc1,inactive: 1.02
3,CCNC(=O)c1csc(N)n1,inactive: 0.971
4,Cc1noc(C)c1NC(=O)Nc1ccc2c(c1)C(=O)N([C@H](C)CO)C[C@@H](C)[C@H](CN(C)CC1CC1)OCCCC[C@@H](C)O2,inactive: 0.982
5,CCCN1CCCc2cc(CCN)ccc21,inactive: 1.01
6,CC(=O)N[C@H]1[C@@H](OCc2ccccc2)O[C@H](C(=O)O)[C@@H](OC(C)=O)[C@@H]1OC(C)=O,inactive: 0.992
7,CO[C@H]1CN(C)C(=O)c2ccc(NC(=O)Nc3cccc(F)c3)cc2OC[C@@H](C)N(C(=O)Nc2c(C)noc2C)C[C@@H]1C,inactive: 1.01
8,Cc1ncc([N+](=O)[O-])n1CCO,inactive: 1.12
9,COc1ccc(S(=O)(=O)Nc2ccc3c(c2)CC(=O)N([C@@H](C)CO)C[C@H](C)[C@H](CN(C)C(=O)NC(C)C)O3)cc1,inactive: 0.99
10,COc1ccc(S(=O)(=O)Nc2ccc3c(c2)C(=O)N([C@H](C)CO)C[C@H](C)[C@@H](CN(C)C(=O)c2ccccc2)OCCCC[C@@H](C)O3)cc1,inactive: 1.01
11,COc1ccc(CN(C)C[C@@H]2OCCCC[C@H](C)Oc3ccc(NS(=O)(=O)c4cccs4)cc3C(=O)N([C@@H](C)CO)C[C@@H]2C)cc1,inactive: 1
12,COCC#Cc1cnc2c(c1)C(=O)N([C@@H](C)CO)C[C@@H](C)[C@@H](CN(C)S(=O)(=O)c1ccccc1)O2,inactive: 1.01
13,C[C@H]1CN([C@@H](C)CO)C(=O)c2c(c3ccccc3n2C)-c2ccccc2CO[C@H]1CN(C)Cc1ccc2c(c1)OCO2,inactive: 0.987
14,CNCCC(Oc1cccc2ccccc12)c1cccs1.Cl (stereo not given),inactive: 0.907
15,COc1ccc(CN(C)C[C@H]2OCCCC[C@@H](C)Oc3ccc(NC(=O)Nc4ccc(OC)cc4)cc3C(=O)N([C@H](C)CO)C[C@H]2C)cc1,inactive: 0.951
16,C[C@@H]1CN([C@H](C)CO)C(=O)c2cccc(NC(=O)c3cnccn3)c2O[C@@H]1CN(C)S(=O)(=O)c1cccs1,inactive: 0.993
17,Cc1ccc(S(=O)(=O)Nc2ccc3c(c2)C(=O)N([C@@H](C)CO)C[C@H](C)[C@H](CN(C)C(=O)Nc2ccc(F)cc2)OCCCC[C@@H](C)O3)cc1,inactive: 1.01
18,C[C@@H]1CN([C@H](C)CO)S(=O)(=O)c2ccc(C#Cc3ccc(F)cc3)cc2O[C@H]1CN(C)S(C)(=O)=O,inactive: 1.02
19,COc1ccc(NC(=O)Nc2cccc3c2O[C@H](CN(C)Cc2ccc(Oc4ccccc4)cc2)[C@H](C)CN([C@H](C)CO)C3=O)cc1,inactive: 1.04
20,CC1(C)CC(=O)C=C(NCC(=O)O)C1,inactive: 0.991
